We go through 8 variants from the supplement of paper PMC12217912.

The chains are these.
B1: TEV protease; numbered along this chain (parent)
chain: MGESLFKGPRDYNPISSSICHLTNESDGHTTSLYGIGFGPFIITNKHLFRRNNGTLVVQSLHGVFKVKDTTTLQQHLVDGRDMIIIRMPKDFPPFPQKLKFREPQREERICLVTTNFQTKSMSSMVSDTSCTFPSGDGIFWKHWIQTKDGQCGSPLVSTRDGFIVGIHSASNFTNTNNYFTSVPKNFMELLTNQEAQQWVSGWRLNADSVLWGGHKVFMVKPEEPFQPVKEATQL

The variants in the experiment derive from B1. The experiment can be described thus: raw area under fraction-flipped curve 0-4 h after induction (AUC4h, not background-subtracted), DNA-recorder readout of cleavage of the substrate (dimensionless); higher = more cleavage of the substrate by the protease variant. As to conditions: temperature: 34 °C; time window: 0-4 h after rhamnose induction. As to the method:
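In vivo DNA recorder in E. coli TOP10(DE3) ΔrhaA at 34 °C. Each TEVp single-site mutant (parent TEVp 0) is paired with a single-site variant of the 7-mer TEVs (canonical ENLYFQ|S). The substrate sits between flexible linkers in a Bxb1-sfGFP-TEVs-SsrA fusion, so cleavage stabilises Bxb1 and speeds flipping of a recombination array, read by NGS. The value is the raw area under the fraction-flipped curve over 0-4 h after rhamnose induction (AUC4h), with ≥20 reads per time point. It is not background-subtracted; inactive controls average about 0.047.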

The other results are listed elsewhere or left out. The full chains were built here from the parent and the listed change. Inactive controls read about 0.05.
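Note: Bxb1 expression induced with 0.2% (w/v) L-rhamnose at OD600 near 0.5, cultures sampled hourly, flipped fraction per protease–substrate barcode pair counted by paired-end Illumina sequencing.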

With MGESLFKGPRDYAPISSSICHLTNESDGHTTSLYGIGFGPFIITNKHLFRRNNGTLVVQSLHGVFKVKDTTTLQQHLVDGRDMIIIRMPKDFPPFPQKLKFREPQREERICLVTTNFQTKSMSSMVSDTSCTFPSGDGIFWKHWIQTKDGQCGSPLVSTRDGFIVGIHSASNFTNTNNYFTSVPKNFMELLTNQEAQQWVSGWRLNADSVLWGGHKVFMVKPEEPFQPVKEATQL [N13A], the “area with substrate ENLYFQA” value turned out to be 0.0943, the “area with substrate ENLYFQC” value was 0.092, the “area with substrate ENLYFQD” value came out at 0.0535 and the “area with substrate ENLYFQF” value was 0.0772. Further, the “area with substrate ENLYFQG” value is 0.0877, the “area with substrate ENLYFQH” value is 0.0839, the “area with substrate ENLYFQI” value worked out at 0.0507 and the “area with substrate ENLYFQK” value amounted to 0.0691. The “area with substrate ENLYFQL” value was determined as 0.0688, the “area with substrate ENLYFQM” value came to 0.0897, the “area with substrate ENLYFQN” value was determined as 0.0667 and the “area with substrate ENLYFQP” value came out at 0.0595. Moreover, the “area with substrate ENLYFQQ” value came to 0.0666, the “area with substrate ENLYFQR” value worked out at 0.0647, the “area with substrate ENLYFQS” value was found to be 0.0942 and the “area with substrate ENLYFQT” value was determined as 0.0744. Besides, the “area with substrate ENLYFQV” value stood at 0.0624 and the “area with substrate ENLYFQY” value worked out at 0.0595.
Consider MGESLFKGPRDYNPISSSICHLTNESDGHTTSLYGIKFGPFIITNKHLFRRNNGTLVVQSLHGVFKVKDTTTLQQHLVDGRDMIIIRMPKDFPPFPQKLKFREPQREERICLVTTNFQTKSMSSMVSDTSCTFPSGDGIFWKHWIQTKDGQCGSPLVSTRDGFIVGIHSASNFTNTNNYFTSVPKNFMELLTNQEAQQWVSGWRLNADSVLWGGHKVFMVKPEEPFQPVKEATQL [G37K], for which the “area with substrate ENLYFQA” value is 0.0668, the “area with substrate ENLYFQC” value is 0.0636, the “area with substrate ENLYFQD” value was 0.0498 and the “area with substrate ENLYFQH” value worked out at 0.0542. Also, the “area with substrate ENLYFQL” value amounted to 0.0467, the “area with substrate ENLYFQM” value came out at 0.0579, the “area with substrate ENLYFQN” value is 0.0596 and the “area with substrate ENLYFQR” value is 0.0461. For the same variant, the “area with substrate ENLYFQS” value stood at 0.0579, the “area with substrate ENLYFQT” value came out at 0.0474, the “area with substrate ENLYFQV” value came to 0.0453 and the “area with substrate ENLYFQW” value worked out at 0.0528.
Regarding MGESLFKGPRDYNPISSSICHLTNESDGHTTSLYGIGFGPFIITNKHLFRRNNGTLVVQSLHGVFKVKDTTTLQQHLVDGRDMIIIRMPKDFPPFPQKLKFREPQREERICLVTTNFQTKSMVSMVSDTSCTFPSGDGIFWKHWIQTKDGQCGSPLVSTRDGFIVGIHSASNFTNTNNYFTSVPKNFMELLTNQEAQQWVSGWRLNADSVLWGGHKVFMVKPEEPFQPVKEATQL [S123V], the “area with substrate ENLYFQA” value turned out to be 0.125, the “area with substrate ENLYFQC” value stood at 0.141, the “area with substrate ENLYFQE” value was 0.0768 and the “area with substrate ENLYFQG” value came out at 0.0993. The “area with substrate ENLYFQH” value stood at 0.0709, the “area with substrate ENLYFQI” value amounted to 0.0447, the “area with substrate ENLYFQL” value stood at 0.0453 and the “area with substrate ENLYFQM” value turned out to be 0.0817. The “area with substrate ENLYFQN” value turned out to be 0.0634, the “area with substrate ENLYFQQ” value is 0.098, the “area with substrate ENLYFQR” value was 0.0496 and the “area with substrate ENLYFQS” value came out at 0.103. In addition, the “area with substrate ENLYFQT” value came to 0.0588, the “area with substrate ENLYFQV” value is 0.063, the “area with substrate ENLYFQW” value came out at 0.058 and the “area with substrate ENLYFQY” value was found to be 0.0808.
As for MGESLFKGPRDYNPISSSICHLTNESDWHTTSLYGIGFGPFIITNKHLFRRNNGTLVVQSLHGVFKVKDTTTLQQHLVDGRDMIIIRMPKDFPPFPQKLKFREPQREERICLVTTNFQTKSMSSMVSDTSCTFPSGDGIFWKHWIQTKDGQCGSPLVSTRDGFIVGIHSASNFTNTNNYFTSVPKNFMELLTNQEAQQWVSGWRLNADSVLWGGHKVFMVKPEEPFQPVKEATQL [G28W], the “area with substrate ENLYFQA” value turned out to be 0.0944, the “area with substrate ENLYFQC” value is 0.0683, the “area with substrate ENLYFQD” value came to 0.0659 and the “area with substrate ENLYFQF” value was determined as 0.0557. Moreover, the “area with substrate ENLYFQG” value is 0.0691, the “area with substrate ENLYFQH” value is 0.0687, the “area with substrate ENLYFQI” value worked out at 0.0568 and the “area with substrate ENLYFQK” value turned out to be 0.0584. Moreover, the “area with substrate ENLYFQL” value stood at 0.0385, the “area with substrate ENLYFQM” value turned out to be 0.0637, the “area with substrate ENLYFQN” value amounted to 0.0758 and the “area with substrate ENLYFQP” value stood at 0.0581. In addition, the “area with substrate ENLYFQR” value was 0.0626, the “area with substrate ENLYFQS” value came to 0.0777, the “area with substrate ENLYFQT” value amounted to 0.0637 and the “area with substrate ENLYFQV” value was 0.0586. For the same variant, the “area with substrate ENLYFQW” value turned out to be 0.058 and the “area with substrate ENLYFQY” value worked out at 0.0692.
With MGESLFKGPRDYNPISSSICHLTNESDGHTTSLYGIGFGPFIITNKHLFRRNNGTLVVQSLHGVFKVKDTTTLQQHLVDGRDMIIIRMPKDFPPFPQKLKFREPQREERICLVVTNFQTKSMSSMVSDTSCTFPSGDGIFWKHWIQTKDGQCGSPLVSTRDGFIVGIHSASNFTNTNNYFTSVPKNFMELLTNQEAQQWVSGWRLNADSVLWGGHKVFMVKPEEPFQPVKEATQL [T114V], the “area with substrate ENLYFQA” value turned out to be 0.13, the “area with substrate ENLYFQC” value is 0.11, the “area with substrate ENLYFQD” value turned out to be 0.0778 and the “area with substrate ENLYFQE” value came to 0.0658. The “area with substrate ENLYFQF” value amounted to 0.0743, the “area with substrate ENLYFQG” value amounted to 0.078, the “area with substrate ENLYFQH” value was 0.0655 and the “area with substrate ENLYFQI” value came out at 0.0373. For the same variant, the “area with substrate ENLYFQK” value stood at 0.0614, the “area with substrate ENLYFQL” value was 0.0682, the “area with substrate ENLYFQM” value came out at 0.0745 and the “area with substrate ENLYFQN” value was 0.0614. Also, the “area with substrate ENLYFQP” value worked out at 0.0481, the “area with substrate ENLYFQQ” value worked out at 0.0745, the “area with substrate ENLYFQR” value was found to be 0.0547 and the “area with substrate ENLYFQS” value is 0.102. In addition, the “area with substrate ENLYFQT” value was 0.0653, the “area with substrate ENLYFQV” value worked out at 0.0579, the “area with substrate ENLYFQW” value came to 0.062 and the “area with substrate ENLYFQY” value amounted to 0.0671.
As to MGESLFKGPRDYNPISSSICHLTNESDGHTTSLYGIGFGPFIITNKHLFRRNNGTLVVQSLHGVFKVKDTTTLQQHLVDGRDMIIIRMPKDFPPFPQKLKFREPQREERICLVTTNFQTKSMSSMVSDTSCTFPSGDGIFWHHWIQTKDGQCGSPLVSTRDGFIVGIHSASNFTNTNNYFTSVPKNFMELLTNQEAQQWVSGWRLNADSVLWGGHKVFMVKPEEPFQPVKEATQL [K142H], the “area with substrate ENLYFQA” value was 0.0831, the “area with substrate ENLYFQC” value came to 0.126, the “area with substrate ENLYFQD” value stood at 0.0893 and the “area with substrate ENLYFQE” value was 0.0659. For the same variant, the “area with substrate ENLYFQF” value was 0.0813, the “area with substrate ENLYFQG” value stood at 0.101, the “area with substrate ENLYFQH” value stood at 0.079 and the “area with substrate ENLYFQI” value is 0.0617. Also, the “area with substrate ENLYFQK” value is 0.0639, the “area with substrate ENLYFQL” value turned out to be 0.0665, the “area with substrate ENLYFQM” value was found to be 0.0763 and the “area with substrate ENLYFQN” value was determined as 0.0758. Further, the “area with substrate ENLYFQP” value is 0.0699, the “area with substrate ENLYFQQ” value was determined as 0.0801, the “area with substrate ENLYFQR” value came out at 0.0597 and the “area with substrate ENLYFQS” value was found to be 0.105. The “area with substrate ENLYFQT” value came to 0.0726, the “area with substrate ENLYFQV” value was determined as 0.06, the “area with substrate ENLYFQW” value worked out at 0.0613 and the “area with substrate ENLYFQY” value was determined as 0.0892.
On to MGESLFKGPRDYNPISSSICHLTNESDGHTTSLYGIGFGPFIITNKHLFRRNNGTLVVQSLHGVFKVKDTTTLQQHLVDGRDMIIIRMPKDFPPFPQKLKFREPQREERICLVTTNFQTKSMSSMVSDTSCTFPSGDGIFWKHWIQTKDGQCGSPLVSTRDGFIVPIHSASNFTNTNNYFTSVPKNFMELLTNQEAQQWVSGWRLNADSVLWGGHKVFMVKPEEPFQPVKEATQL [G166P], for which the “area with substrate ENLYFQA” value was found to be 0.0405, the “area with substrate ENLYFQC” value turned out to be 0.0462, the “area with substrate ENLYFQD” value came to 0.0406 and the “area with substrate ENLYFQE” value turned out to be 0.0656. The “area with substrate ENLYFQI” value was 0.0547, the “area with substrate ENLYFQK” value amounted to 0.0503, the “area with substrate ENLYFQL” value amounted to 0.0552 and the “area with substrate ENLYFQN” value was determined as 0.0277. The “area with substrate ENLYFQP” value was found to be 0.0216, the “area with substrate ENLYFQQ” value amounted to 0.0434, the “area with substrate ENLYFQR” value came out at 0.0552 and the “area with substrate ENLYFQS” value was found to be 0.0471. Moreover, the “area with substrate ENLYFQT” value worked out at 0.0367, the “area with substrate ENLYFQV” value came to 0.0454, the “area with substrate ENLYFQW” value was 0.0459 and the “area with substrate ENLYFQY” value was 0.0367.
Consider MGESLFKGPRDYNPASSSICHLTNESDGHTTSLYGIGFGPFIITNKHLFRRNNGTLVVQSLHGVFKVKDTTTLQQHLVDGRDMIIIRMPKDFPPFPQKLKFREPQREERICLVTTNFQTKSMSSMVSDTSCTFPSGDGIFWKHWIQTKDGQCGSPLVSTRDGFIVGIHSASNFTNTNNYFTSVPKNFMELLTNQEAQQWVSGWRLNADSVLWGGHKVFMVKPEEPFQPVKEATQL [I15A], for which the “area with substrate ENLYFQA” value worked out at 0.0972, the “area with substrate ENLYFQC” value came to 0.0788, the “area with substrate ENLYFQD” value was 0.0634 and the “area with substrate ENLYFQE” value turned out to be 0.0674. Besides, the “area with substrate ENLYFQF” value came out at 0.0698, the “area with substrate ENLYFQG” value was 0.0849, the “area with substrate ENLYFQH” value is 0.0803 and the “area with substrate ENLYFQI” value came to 0.0532. For the same variant, the “area with substrate ENLYFQK” value amounted to 0.0453, the “area with substrate ENLYFQL” value came to 0.0505, the “area with substrate ENLYFQM” value is 0.0735 and the “area with substrate ENLYFQN” value came out at 0.0746. For the same variant, the “area with substrate ENLYFQQ” value came to 0.0671, the “area with substrate ENLYFQR” value is 0.059, the “area with substrate ENLYFQS” value amounted to 0.0923 and the “area with substrate ENLYFQT” value stood at 0.0608. In addition, the “area with substrate ENLYFQY” value came to 0.0736.
